In all, about 310,000 compounds went through this assay and about 14,000 (4.5%) showed an effect of 50% or more. Effects have a minus sign here. The list shows a part of the results.
Target: human ether-à-go-go-related gene (hERG) potassium channel (human, UniProt Q12809)
Assay: primary screen, population patch clamp on CHO cells stably expressing hERG
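Note: peak tail current of the secondary pulse compared with the same well before compound.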

Chain of human ether-à-go-go-related gene (hERG) potassium channel (Q12809 whole entry, looked up): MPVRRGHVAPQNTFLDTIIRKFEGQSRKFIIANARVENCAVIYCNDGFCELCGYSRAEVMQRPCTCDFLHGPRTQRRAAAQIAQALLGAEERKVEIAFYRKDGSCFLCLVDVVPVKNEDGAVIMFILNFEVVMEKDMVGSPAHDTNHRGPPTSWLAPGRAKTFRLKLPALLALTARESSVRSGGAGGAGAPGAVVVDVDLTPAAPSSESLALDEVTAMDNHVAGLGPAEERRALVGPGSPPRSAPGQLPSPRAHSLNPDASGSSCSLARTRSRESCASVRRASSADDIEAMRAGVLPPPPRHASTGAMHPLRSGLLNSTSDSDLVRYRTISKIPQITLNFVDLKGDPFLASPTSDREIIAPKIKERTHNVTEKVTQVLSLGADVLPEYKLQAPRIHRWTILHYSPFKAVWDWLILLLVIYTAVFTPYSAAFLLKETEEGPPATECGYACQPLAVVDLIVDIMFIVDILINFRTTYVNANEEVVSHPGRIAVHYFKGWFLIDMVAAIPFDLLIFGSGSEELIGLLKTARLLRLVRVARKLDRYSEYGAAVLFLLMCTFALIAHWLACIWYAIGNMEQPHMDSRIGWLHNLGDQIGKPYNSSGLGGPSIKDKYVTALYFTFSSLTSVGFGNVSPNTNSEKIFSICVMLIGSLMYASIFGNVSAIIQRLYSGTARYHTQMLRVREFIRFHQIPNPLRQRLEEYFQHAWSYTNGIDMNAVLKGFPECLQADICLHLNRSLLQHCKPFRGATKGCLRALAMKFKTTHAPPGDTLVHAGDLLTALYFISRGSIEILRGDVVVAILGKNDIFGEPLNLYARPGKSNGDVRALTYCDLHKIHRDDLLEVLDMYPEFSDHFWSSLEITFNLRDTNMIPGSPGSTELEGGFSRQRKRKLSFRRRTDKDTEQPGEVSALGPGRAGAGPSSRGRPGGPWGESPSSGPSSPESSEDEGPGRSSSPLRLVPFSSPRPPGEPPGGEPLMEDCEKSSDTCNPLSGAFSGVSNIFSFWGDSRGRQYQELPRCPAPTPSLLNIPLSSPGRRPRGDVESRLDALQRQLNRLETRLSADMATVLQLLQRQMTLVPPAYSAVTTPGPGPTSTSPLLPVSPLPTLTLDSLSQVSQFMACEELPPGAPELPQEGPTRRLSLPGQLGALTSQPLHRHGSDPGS

SMILES | hERG current change (%, negative = inhibition) at 10uM
COc1ccc(C(=O)NC2CCCc3c2cnn3-c2cccc(C)c2C)o1 (centres unmarked) | -30.6%
CC(C(=O)N1CCN(c2ccc([N+](=O)[O-])cc2)CC1)N1C(=O)C2CC=CCC2C1=O (centres unmarked) | -72.2%
CCN(CC)CCNC(=O)/C(=C\c1cccn1C)NC(=O)c1cccs1 | -23.6%
COc1ccc(CCNC(=O)COc2ccc(S(=O)(=O)N3CCOCC3)cc2)cc1 | 3.06%
CC(Nc1ccc(F)cc1F)C(=O)NC(=O)NC1CCCCC1 (centres unmarked) | 24.5%
Cc1ccc(N2C(=O)CSC2=S)cc1C | 12.6%
COc1ccc(-n2c(C)cc(/C=C3/SC(=O)N(CC(=O)N4CCOCC4)C3=O)c2C)cc1 | 9.21%
O=C(COC(=O)c1ccccc1)Nc1ccccc1N1CCOCC1 | -7.41%
COc1cccc(NC(=O)[C@H](CC(C)C)NC(=O)[C@@H]2Cc3ccccc3CN2)c1 | -16%
O=C(Oc1cccc(NC2=NS(=O)(=O)c3ccccc32)c1)c1ccncc1 | 11.2%
CC1(C)Cc2c(sc(NC(=O)C(C)(C)C)c2C#N)C(C)(C)N1 | 3.16%
O=C(COC(=O)c1cnccn1)c1ccc(-c2ccccc2)cc1 | 11.9%
CCCC(c1nnnn1C1CCCCC1)N1CCN(c2ncccn2)CC1.Cl (centres unmarked) | -10.1%
CCOc1ccc(C(=O)NCc2ccco2)cc1Cl | -4.19%
COc1ccc(C(=O)NCCCCCCNC(=O)c2ccc(OC)cc2)cc1 | -5.13%
Cc1ccc(-c2nn3c(C)nnc3c3ccccc23)cc1S(=O)(=O)NCCO | 11%
COc1ccc(S(=O)(=O)NCc2ccc(C(=O)NCc3cccnc3)cc2)cc1 | -1.21%
COC(=O)c1sc(SC)c(S(=O)(=O)C(C)C)c1N/N=C(\C#N)C(=O)c1ccccc1 | -8.18%
CCCn1c(N)c(C(=O)CSc2nnc(N)s2)c(=O)[nH]c1=O | -15%

SMILES | hERG current change (%, negative = inhibition) at 10uM
COc1ccc(CC2C(=O)NC(=O)N(c3ccccc3)C2=O)c(OC)c1 (centres unmarked) | 13.2%
CC12CCC(=O)N1C(C(=O)Nc1nc(-c3ccccc3Cl)cs1)CS2 (centres unmarked) | -6.16%
Cn1c(C(=O)NCCc2ccsc2)cc2c(=O)n(C)c3ccccc3c21 | -7.88%
COc1ccc(-n2c(C)cc(C(=O)CN3C(=O)NC4(CCc5ccccc54)C3=O)c2C)cc1 (centres unmarked) | -6.91%
Cc1cc(Nc2cccc(F)c2)nc(N2CCOCC2)n1 | -17%
O=C1NC(=O)C(=Cc2ccc(N3CCOCC3)o2)C(=O)N1 | 26.7%
CCn1cc(C(=O)NCc2ccco2)c(=O)c2cc(S(=O)(=O)N3CCC(C)CC3)ccc21 | -36.5%
O=C1C(Cl)=C(N2CCCCCC2)C(=O)N1c1ccc(Cl)cc1 | 11.7%
COC(=O)C(Cc1ccccc1)NC(=O)CNC(=O)c1ccc(Br)o1 (centres unmarked) | 3.41%
O=C(/C=C/c1ccc(F)cc1)N1CCN(S(=O)(=O)/C=C/c2ccccc2)CC1 | 14.2%
CC(=O)NC(Cc1ccccc1)C(=O)NC1CCN(C(=O)NC2CCCCC2)CC1 (centres unmarked) | -0.881%
COc1cc(NC(=O)Cc2c(C(=O)O)n(C)c3ccccc23)cc(OC)c1OC | 35%
O=[N+]([O-])c1ccc(N=NN(CCO)CCO)cc1 | -75.3%
COc1ccc2oc(=O)c(C(=O)Nc3ccccc3O)cc2c1 | 8.79%
CCN(CC)CCCNC(=O)CNC(=O)c1nn(-c2ccc(OC)cc2)c(=O)c2ccccc12 | 23.8%
Cc1cc(C)nc(SCCN(C)C)n1.O=C(O)CCC(=O)O | 17.6%
CC(=O)Nc1ccc2c(c1)N(C(=O)CN(C)C)c1ccccc1CC2 | 9.22%
COC(=O)Cc1ccc(OCc2ccc(Cl)nc2)cc1 | -5.23%
COc1ccc(S(=O)(=O)NCc2ccc(C(=O)N(C)Cc3ccco3)cc2)cc1 | -19.1%

SMILES | hERG current change (%, negative = inhibition) at 10uM
CCCN=C1CC(C)(C)CC(=O)/C1=C(/O)CCCN1C(=O)c2ccccc2C1=O | -11.4%
O=C(Cn1c(CO)nc2ccccc21)NC1CCCCCC1 | 24.6%
Cc1nnsc1C(=O)N/N=C/c1ccc2ccccc2c1O | 19.7%
Clc1cccc(CNCCc2ccc3c(c2)OCO3)c1.O=C(O)C(=O)O | -24%
Cn1cnnc1SCC(=O)NN(c1ccccc1)c1ccccc1 | 28.6%
COc1cccc(C(c2nnnn2CS(=O)(=O)c2ccc(C)cc2)N2CCN(C)CC2)c1OC (centres unmarked) | -22.5%
Cc1ccc(-c2cc(=O)c3cc(C)ccc3[nH]2)cc1 | 8.27%
COc1ccc(NS(=O)(=O)c2cc3c(cc2C)N(C(C)=O)CCO3)cc1OC | 6.78%
Nc1cc(S(=O)(=O)Nc2ccc(Br)cc2)ccc1Cl | -4.84%
O=c1[nH]c(=O)n(C2CCCCC2)c(O)c1C=Nc1ccc(N2CCOCC2)cc1 | -6.83%
Cc1c(C(=O)NCCN(C)C)oc2ccc(S(=O)(=O)N3CCC4(CC3)OCCO4)cc12 | -1.46%
COc1ccc(C(CNC(=O)COc2ccc(F)cc2Cl)N2CCCCC2)cc1 (centres unmarked) | -8.7%
COc1ccc(-c2ccnc3ncnn23)cc1 | -9.61%
COc1cccc(CN(CC(=O)NCC2CCCO2)C(=O)CCC(=O)Nc2cc(C)on2)c1 (centres unmarked) | -0.822%
CC(Sc1nnc(-c2cccnc2)o1)C(=O)NC1CCCC1 (centres unmarked) | -5.03%
COc1ccc(/C=C/C(=O)c2cc(F)ccc2OC(=O)c2ccccc2C)cc1OC | 8.32%
CC(C)(C)C(=O)CCN1C(=O)C2(OCCO2)c2ccccc21 | 1.4%
CCC(=O)N1CCC2(CC1)Oc1ccc(Cl)cc1C(=O)C21CC(c2ccc(Cl)cc2)=NO1 (centres unmarked) | 5.24%
